# Laboratory results: PubChem BioAssay AID1865 (National Center for Advancing Translational Sciences (NCATS), 2009)
# Several values for one entry are separate records, joined by “and”; a condition that tells them apart may be missing. Equal entries are not always repeated. The campaign covered roughly 280,000 compounds. About 540 (0.19%) were called active. The inconclusive results got no clear call from the source; some entries with a clear call stand among them for comparison. The call rests on the fitted dose curve; in most records, active means well fitted activation curve with a large enough effect; inconclusive means small, poorly fitted or top-dose-only effect; inactive means flat fitted curve, though single readings scatter. Where the call is inconclusive, the potency comes from a doubtful curve fit.
# Test: Quantitative High-Throughput Screen for Regulators of Epigenetic Control; further: nearly all actives have a fitted effect of over 60% in size; on GFP activation: % of control where 0% means no effect
# Conditions: murine LDR cells, GFP reporter derepression, 30 h; GFP activation: at 53.9 µM (top of the series)
# How it was run: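 Reporter derepression read as number of fluorescent GFP-positive objects, 20-120 um in size, counted by laser-scanning cytometer. Mouse LDR line with an epigenetically silenced CMV-GFP locus; compound incubation 30 h, 37 C.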
# Potency means the concentration at half of the fitted maximal effect; tags describe the fitted curve by direction and shape.
SMILES,GFP activation,Potency
Cc1ccc2c(c1)nnn2C1CCN(CC(=O)Nc2ccccc2N2CCOCC2)CC1,inactive: -1.08%,
O=C(Cn1c(=O)c2ccccc2n(CC(=O)Nc2ccc(F)cc2F)c1=O)NCCc1ccccc1,,"inconclusive: 35.5 µM [activator, single point]"
CC(C)(C)NC(=O)CSc1nc2ccc(NC(=O)CSc3nnnn3Cc3ccccc3)cc2s1,inactive: -0.27%,
Nc1c(C(=O)c2cccs2)sc2nsc(SCCN3CCCCC3)c12,,active: 3.55 µM
C=CCNC(=S)N/N=C/c1ccc(C)cc1C,,"inconclusive: 35.5 µM [activator, single point]"
O=C(NC1CCCC1)C(c1ccc(F)cc1)N(Cc1ccc(F)cc1)C(=O)CCl (stereo not given),inactive: -0.98%,
NS(=O)(=O)c1ccc(N2N=C(c3ccccc3)CC2c2cccc(F)c2)cc1 (stereo not given),inactive: 10.4%,
COc1ccccc1NC(=O)c1cc2c(=O)oc3ccc(C)cc3c2s1,inactive: -1.11%,
CCOc1ccccc1NC(=O)Cn1nnc2sc(-c3ccccc3)cc2c1=O,,"inconclusive: 28.2 µM [activator, single point]"
CCc1ccc(NC(=S)NCC2CCCN2CC)cc1 (stereo not given),,"inconclusive: 35.5 µM [activator, single point]"
COc1cccc(-c2ccc3c(N)c(C(=O)c4ccc(Cl)cc4)sc3n2)c1,,"inconclusive: 31.6 µM [activator, single point]"
O=C(Nc1nc2n(n1)C(c1ccccc1)C=C(c1ccccc1)N2)c1ccc(Cl)c([N+](=O)[O-])c1 (stereo not given),inactive: -3.62%,
CCCCC(Sc1nc2cc3c(cc2c(=O)n1CCCC(=O)NCc1ccc(OC)cc1)OCO3)C(=O)OCC (stereo not given),inactive: -1.3%,
O=C(N/N=C/c1cccs1)c1cc(-c2ccc3ccccc3c2)n[nH]1,inactive: 0%,
CCOC(=O)Cn1c(=O)c(-c2cc(Br)ccc2N)nc2ccccc21,,"inconclusive: 31.6 µM [activator, single point]"
Cc1cc(C)cc(OCC(=O)Nc2ccc(-c3nc4ccccc4o3)cc2)c1,,"inconclusive: 22.4 µM [activator, single point]"
Cc1ccc(NC(=O)C(=O)NCC2(c3ccccc3)CCCC2)cc1Cl,,"inconclusive: 17.8 µM [activator, single point]"
O[C@@H]1[C@@H]2c3cc4c(cc3CN3CCC(=C[C@@H]1O)[C@H]23)OCO4,,"inconclusive: 10 µM [activator, single point]"
CCOC(=O)c1c(NC(=O)CC2Nc3ccccc3NC2=O)sc(C)c1C (stereo not given),,"inconclusive: 31.6 µM [activator, single point]"
Cc1ccc(NC(=O)Cn2c(=O)n(CCCCCC(=O)NCc3ccc(F)cc3)c(=O)c3sccc32)cc1C,inactive: 4.6%,
COc1cc(/C=C(/C#N)c2nc3ccccc3[nH]2)ccc1OC(=O)c1ccco1,,"inconclusive: 14.1 µM [activator, partial curve]"
CCSc1cc(N2CCCC2)nc(-c2ccc(C)cc2)n1,inactive: -0.0755%,
Cn1c(=O)c2c(nc(N/N=C/c3ccco3)n2C)n(C)c1=O,inactive: -6.35%,
Cc1cc(=O)n(CC=C(Cl)Cl)c2ccccc12,,"inconclusive: 12.6 µM [activator, partial curve]"

SMILES,GFP activation,Potency
Cc1cc(N2CCN(c3ccc([N+](=O)[O-])c4cccnc34)CC2)c2ccccc2n1,,active: 7.08 µM
O=C(NCc1ccccc1)c1ccc(CN(c2ccccn2)S(=O)(=O)c2ccccc2)cc1,inactive: 0%,
COC(=O)c1sccc1NC(=S)N1CCC(C(N)=O)CC1,inactive: 2.7%,
COc1ccc(NC(=O)Cn2c(=O)oc3cc(S(=O)(=O)NC4CCCC4)ccc32)cc1OC,inactive: 0.833%,
Cc1ccc(S(=O)(=O)C(CNC(=O)C(=O)NCc2ccc(Cl)cc2)c2cccs2)cc1 (stereo not given),,"inconclusive: 4.47 µM [activator, full curve, poor fit]"
O=C(NCCCNc1ccc(C(F)(F)F)cc1[N+](=O)[O-])c1ccc(F)cc1,,active: 17.8 µM
Fc1ccccc1-n1cc(-c2ccccc2)[nH]c1=S,inactive: -0.379%,
Cc1ccc(CN(C)C(=O)c2ccccc2Oc2ccccc2)o1,,"inconclusive: 35.5 µM [activator, single point]"
Cc1cc(C)c2c(C)c(C(=O)N3CCC(c4nc5ccccc5s4)CC3)oc2c1,inactive: -3.23%,
CCCC1(C(=O)OCC)NC(c2ccc(N(C)C)cc2)C2C(=O)N(c3ccc(OCC)cc3)C(=O)C21 (stereo not given),,"inconclusive: 5.62 µM [activator, single point]"
N#CC1=C(N)OC2=C(CC/C2=C\c2ccccc2)C1c1ccccc1 (stereo not given),,"inconclusive: 35.5 µM [activator, single point]"
N#CC1=C(S)N(c2ccccc2)C(c2ccc(-c3ccc(Cl)c(Cl)c3)o2)NC1=O (stereo not given),inactive: 1.49%,
COC(=O)c1[nH]c2cc(OC)ccc2c1NC(=O)CCN1CCN(c2cccc(C)c2C)CC1,inactive: -7.23%,
COc1ccc(-c2[nH]ncc2N=Nc2ccccc2)cc1,,"inconclusive: 35.5 µM [activator, single point]"
COC(=O)CCCC1=CC2=CC(=O)C(C)(OC(=O)c3cccs3)C(=O)C2=CN1CCCCO (stereo not given),,"inconclusive: 1.12 µM [activator, full curve, poor fit]"
CCc1ccc(CNc2ccc(N3CCN(C(C)=O)CC3)cc2)cc1,inactive: 0%,
O=C(C[n+]1cn(C(F)F)c2ccccc21)c1ccc(OC(F)F)cc1,,"inconclusive: 22.4 µM [activator, single point]"
FC(F)(F)c1cnc(NNC(=S)Nc2ccc(Cl)cc2)c(Cl)c1,inactive: -2.99%,
COc1cc(CC(=O)N/N=C/c2ccc([N+](=O)[O-])cc2)c([N+](=O)[O-])cc1OC,,"inconclusive: 28.2 µM [activator, single point]"
Cc1ccc(NC(=O)CSc2ncnc3c2sc2ccccc23)cc1C,,"inconclusive: 31.6 µM [activator, single point]"
CC(=O)Nc1cccc(Oc2nc(-c3ccccn3)nc3ccccc23)c1,inactive: 0.168%,
O=C(Nc1ccccc1)C1=C[C@H](c2csc3ccccc23)C[C@H](OCc2ccc(CO)cc2)O1,,"inconclusive: 31.6 µM [activator, single point]"
Cn1c(SCC(=O)c2ccccc2)nnc1C1CC1,inactive: -0.223%,
COc1cccc(C(=O)Nc2ccccc2C(=O)OCc2cc(=O)n3c(C)csc3n2)c1,inactive: 4.84%,

SMILES,GFP activation,Potency
Cc1nc(Nc2nc(CSc3nc4ccccc4[nH]3)cc(=O)[nH]2)nc2ccccc12,,"inconclusive: 31.6 µM [activator, single point]"
COc1ccc([N+](=O)[O-])c(S(=O)(=O)c2ccc(Cl)cc2)n1,,"inconclusive: 5.62 µM [activator, single point]"
COc1cc(NC(=O)c2cncc(-c3ccc(C#N)cc3)c2)cc(C(=O)Nc2cccc(C(F)(F)F)c2)c1,,"inconclusive: 11.2 µM [activator, partial curve]"
CC(Oc1ccccc1)C(=O)Nc1ccccc1C(=O)OCc1cc(=O)n2nc(C3CC3)sc2n1 (stereo not given),,"inconclusive: 22.4 µM [activator, single point]"
COC(=O)Cc1c(C)c2ccc3c(c2oc1=O)CN(Cc1ccc(Cl)cc1)CO3,inactive: 1.85%,
COC(=O)C/C=C1\c2ccc3c(c2[C@@H](OC)[C@@H]1C)OCO3,inactive: -1.14%,
Cc1ccc(-n2c(=O)c3ccc(C(=O)NCc4ccccc4Cl)cc3n(Cc3cccc(F)c3)c2=O)cc1,,"inconclusive: 7.08 µM [activator, partial curve]"
Cc1ccc(CNC(=O)C2CCCN(c3nn4cc(-c5ccc(C)cc5)nc4s3)C2)cc1 (stereo not given),,"inconclusive: 35.5 µM [activator, single point]"
O=C(OCCN1C(=O)c2ccccc2C1=O)c1cc(S(=O)(=O)N2CCOCC2)ccc1Cl,inactive: -0.917%,
Nc1cc2c3c(cccc3c1)C(=O)N(CCN1CCCC1)C2=O,,"inconclusive: 35.5 µM [activator, single point]"
CN1CC2=Cc3ccccc3OC23Oc2ccccc2C=C3C1,,"inconclusive: 20 µM [activator, single point]"
O=C(CSc1nc2c([nH]c3ccccc32)c(=O)n1-c1cccc(Cl)c1)N1CCOCC1,,"inconclusive: 22.4 µM [activator, single point] and inconclusive: 31.6 µM [activator, single point]"
COc1ccc(OC)c(C(=O)c2coc3ccc(O)cc23)c1,inactive: 7.49%,
Cc1ccc(NC(=O)Cn2ccsc2=N)cc1S(=O)(=O)N(C)C,,"inconclusive: 22.4 µM [activator, partial curve, poor fit]"
O=[N+]([O-])c1cc(F)c2cccnc2c1O,,"inconclusive: 31.6 µM [activator, single point]"
COC(=O)N[C@@H](c1cccc(C)c1)C(C(C)=O)C(=O)OC (stereo not given in full),inactive: 0%,
Cc1ccc(NC(=O)Cn2nnc(-c3ccccc3NC(=O)c3cccs3)n2)cc1,,"inconclusive: 31.6 µM [activator, single point]"
CCOC(=O)COc1ccc([N+](=O)[O-])cc1-c1ccnc2cc(-c3ccc(C)cc3)nn12,,"inconclusive: 35.5 µM [activator, single point]"
NC(=O)CSc1ncc2c(n1)-c1ccccc1N(Cc1ccc(Cl)cc1)S2(=O)=O,,"inconclusive: 17.8 µM [activator, single point]"
O=C(c1cc2ccc3cccnc3c2[nH]1)N1CCN(c2ccc(Cl)cc2)CC1,inactive: -1.27%,
CC(=O)OCC1OC(C#Cc2ccc(F)cc2F)C=CC1OC(C)=O (stereo not given),,"inconclusive: 5.01 µM [activator, single point]"
O=C1C(Cl)=C(N2CCOCC2)C(=O)N1c1cccc(Cl)c1,,"inconclusive: 2.82 µM [activator, single point]"
